In the supplement of paper PMC10126150:
Sequences with one replicate were seen in a single cluster, so their values are uncertain.

Tested on: ATP
Assay: switch fluorescence ratio, 500 uM ATP over buffer (Cy3 cluster intensity, sum of 5 cycles each) (fold (ratio)); higher = stronger signal-on switching upon ATP binding; sequences stand for … in TCGTCGGCAGCGTCAGATGTGTATAAGAGACAGTTTTTTTTTTTTTTTTTTTTTTTTT…TC
Conditions: aptamer strand: ATP DNA aptamer (quencher-CACCTGGGGGAGTATTGCGGAGGAAGG + anchor), 100 nM annealed; ATP concentration: 500 uM; one replicate
Method in brief: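 Cy3-labelled switching-strand clusters on a modified Illumina MiSeq flow-cell were annealed to 100 nM quencher-labelled ATP aptamer, imaged in selection buffer, then imaged after 15 min with 500 uM ATP at 22 °C. Five buffer/ATP cycles ran, with NaOH stripping and re-annealing between them. The fluorescence ratio is summed target-cycle over summed buffer-cycle Cy3 intensity per cluster, averaged per switch-domain sequence. Clusters outside 100-1000 RFU were excluded.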
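Further: ATP exposure 15 min at 22 °C before imaging.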

Row | Sequence | switch fluorescence ratio
1 | GTGTTACCGT | 0.989
2 | TAGTCGATTC | 1.02
3 | AAATTTGCTA | 0.961
4 | TAGTAAGTCG | 1.03
5 | AACTAAGAAT | 0.998
6 | GCATTATAAT | 1.03
7 | GGCCTCTCGC | 1.09
8 | ACAGTATCCG | 0.981
9 | GGGACCTAAT | 1.03
10 | AACGCGTAAC | 1.44
11 | TTTGGGCTCA | 0.968
12 | GCCCACCTGT | 1.02
13 | GATGAGACGG | 1.01
14 | TGCGATTTAG | 1.03
15 | CATGGCTACT | 1.04
16 | ATCAGTCCCT | 1.01
17 | GACACCGTTC | 1.07
18 | TTGGACACTC | 1.01
19 | TGTTCGTTGT | 1.01
20 | ATACTATATA | 1.11
21 | TTAGAGTGTA | 1.02
22 | CCAAGAAATA | 1
23 | CTAAAGCTTG | 0.965
24 | ACTGTCATCT | 1.01
25 | GCTAATGCGG | 0.989
26 | TTGGCAAGCG | 1.04

Row | Sequence | switch fluorescence ratio
27 | ATAAATCCGT | 0.986
28 | GGGTGTATCT | 1.01
29 | AAGAAGACTC | 1.09
30 | GGCACTATTA | 1.02
31 | CTGGCTACCC | 1.71
32 | ACGCTAGCCA | 1.12
33 | TTTTGGTGAT | 1.01
34 | TTGTATCTGT | 0.947
35 | CCGCGCCGCA | 1.58
36 | GTTATAGCTC | 1
37 | ATGAAAGGA | 1
38 | GTTATAGAAT | 0.984
39 | GACCATGGCT | 0.984
40 | GCCACGCCGG | 1.03
41 | CTGGGTTCAC | 1.01
42 | TGCTAAAGAG | 0.956
43 | ACTACTAGTT | 1.11
44 | TGTAACAGGG | 1.01
45 | GAGTTTTGTT | 1.02
46 | CCCTATCCG | 1.03
47 | AAGAGTTTG | 1
48 | GTTGTGCACA | 0.997
49 | TCGTTGGGTT | 1.03
50 | GGATAGACAA | 0.987
51 | GCATTTTTGA | 0.954
52 | AGGAGAGTCG | 0.973

Row | Sequence | switch fluorescence ratio
53 | TCGCGCAGTC | 1.46
54 | GCTGCAAATA | 0.968
55 | CCGGTGCA | 0.97
56 | ACAACCATTA | 1.01
57 | GCATGGAAAA | 0.947
58 | TTGAAATTAT | 1.03
59 | ATTGACTGGG | 0.958
60 | CTAAGGACG | 1.04
61 | TTTACGTCCC | 1.12
62 | CCAAGTATCC | 0.995
63 | GTGCTAGGCA | 0.984
64 | AACCCGGTCG | 1.09
65 | ATAATTTTA | 0.972
66 | GGGATGCCTC | 1.03
67 | GTGGCCTGTT | 0.975
68 | TATTGTTGTC | 1.02
69 | AGCTGGCCGC | 1.03
70 | TGCAGGT | 1.05
71 | AGGTTGACCG | 1.03
72 | ACGAACCAGG | 3.11
73 | GGCCACGATT | 0.951
74 | TAGTCATCAA | 0.976
75 | ACTGGATGT | 1.01
76 | TATTTATGGA | 1.01
77 | CAGGTATAAC | 0.964
78 | GAAAATAAAT | 1.01

Row | Sequence | switch fluorescence ratio
79 | TCAAAACGC | 1.24
80 | AATGGGGCAC | 0.955
81 | CCTTTGCCGT | 1.03
82 | ATACGACACT | 1.91
83 | GTTAGACGTA | 1.02
84 | GCATAAAAAA | 0.97
85 | CCTTGTAGCA | 2.34
86 | GGCCAGTCAC | 0.984
87 | GAGCGGAGCA | 0.99
88 | AAGAATAGTA | 0.957
89 | TAAAGCAGCA | 1.04
90 | CCTTGCAAAG | 2.65
91 | CTGTTACGGA | 0.985
92 | CATCTGAAGG | 0.96
93 | TGTCGCCCCT | 1.05
94 | TTCATGCCTT | 0.955
95 | GTCGGAAATA | 0.957
96 | AATACATGG | 0.921
97 | TATACGCAAA | 2.73
98 | ACAAATCGCT | 1.01
99 | CCTTCATAA | 1.18
100 | GTTCGAATGG | 1
101 | GAGCGACGTG | 0.926
102 | GAGTGACCCT | 1.04
103 | TGGGCCAGCA | 0.97
104 | CCTCACCACG | 1.23

Row | Sequence | switch fluorescence ratio
105 | CGAGTAGTTT | 1.03
106 | TAAGGTTACC | 0.972
107 | CAAGTTCTCA | 1.04
108 | ACTGAGGGAA | 1.02
109 | GATCGTCTAC | 1.02
110 | TTTGTCGCTA | 1
111 | CCACAGAGAC | 2.23
112 | AAGTAACTAT | 1
113 | TGTACACAGC | 1.08
114 | CTTACATTGG | 1.01
115 | ACTAGCAGC | 1.1
116 | TCCGTTTCCC | 1.14
117 | CGCGACGGGC | 1.07
118 | GATCAGGTAA | 0.955
119 | TCACTATTCT | 0.947
120 | CCGAACTGTG | 1.07
121 | GCAACCCGTG | 1.15
122 | AACGGATAGT | 0.969
123 | CCCATTT | 1.07
124 | TATGGTGCAG | 1.07
125 | TTCTCTAACA | 1.05
126 | TATGCGAGCG | 1.02
127 | TACGATAGTA | 1.02
128 | TGGCCAGGGG | 1.18
129 | GGGTCCTTGA | 0.997
130 | ATAACGACGG | 1.03

Row | Sequence | switch fluorescence ratio
131 | CTGATTATAT | 1.01
132 | CTGATCACAA | 1.46
133 | CTAGCTGGAA | 1.01
134 | GGGTTGTCGG | 0.971
135 | GATTCGTTGG | 1
136 | GCACCAAGTA | 1.1
137 | GCTACTAACT | 1.15
138 | TACGTCATAT | 1.14
139 | TGGTATTAAT | 1.02
140 | GGCTAAGTAG | 1.05
141 | CCTGCATGCT | 1.66
142 | TCTCGACGGG | 0.971
143 | AATTCCTCGC | 2.94
144 | AGGGCTCGTA | 1.02
145 | CGATGTAACG | 1.01
146 | GAGTTGGACT | 0.993
147 | TAGGTGGTGT | 1
148 | GTAAAAACGT | 1.03
149 | ATTGATTGGC | 1.03
150 | TCGAGGATAT | 1.27
151 | AGCGACCCAC | 1.5
152 | GATTCTCTCG | 1.01
153 | CAAGTCACTT | 1.08
